Data taken from PubChem BioAssay AID924 (National Center for Advancing Translational Sciences (NCATS), 2007).
In all, about 130,000 compounds went through this assay and about 1,200 (0.92%) were called active. The shares of active, inactive and inconclusive entries below differ from those in the screen. Calls come from the whole dose curve; as a rule, active = well fitted cell-killing curve with a large enough effect; inconclusive = small, poorly fitted or top-dose-only effect; inactive = no such curve, though single readings can be large or run the other way. A potency beside an inconclusive call is a rough fit, not a confirmed value.

Assay: qHTS Screen for Compounds that Selectively Target Cancer Cells with p53 Mutations: Cytotoxicity of p53ts Cells at the Permissive Temperature; note: nearly all actives have a fitted effect of over 55% in size;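 for activity change, negative = cytotoxicity: 0% = DMSO and -100% = full killing by reference compound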
Conditions: H1299-p53A138V at 32C, ATP luminescence viability, 24 h; activity change, negative = cytotoxicity: at 46.1 µM (top of the series)
How it was run: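 Viability by ATPlite luminescence after 24 h compound treatment (up to 46 uM) at the permissive 32C. Cells are H1299 carrying p53 A138V. Scale runs from DMSO basal to 100 uM tamoxifen as full kill; AC50 from Hill fits.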
Potency is the fitted concentration of half-maximal effect; tags give direction and shape of the fitted curve.

Structure (SMILES)	Potency	activity change, negative = cytotoxicity
Cc1ccc(C(C)C)c(OCc2ccc(C(=O)N/N=C/c3ccc(O)cc3O)cc2)c1	inconclusive: 0.178 µM [cytotoxic, full curve]	
Cc1ccccc1C(=O)N1CCN(c2ccc(NC(=O)c3ccco3)cc2Cl)CC1	inconclusive: 31.6 µM [cytotoxic, single point]	
CCOc1ccc(OCC)c(NC(=O)C2CCN(c3cnccn3)CC2)c1	inconclusive: 5.62 µM [cytotoxic, single point]	
CCCN(CCC)CC(O)Cn1cc(/C=C/C(=O)c2ccc(OCC)cc2)c2ccccc21 (stereo unspecified)	inconclusive: 20 µM [cytotoxic, single point]	
CCc1ccc(NC(=O)C(=O)NCC(c2cccnc2)N2CCOCC2)cc1 (stereo unspecified)	inconclusive: 25.1 µM [cytotoxic, single point]	
CCCCCn1c(=N)n(CC(O)COc2cccc(C)c2)c2ccccc21 (stereo unspecified)	inconclusive: 25.1 µM [cytotoxic, single point]	
Cc1ccccc1CSc1nc2cccnc2n1Cc1ccc(C(=O)NCCc2cccs2)cc1	inconclusive: 35.5 µM [cytotoxic, single point]	
COc1ccc(CCCO[C@@H](Cn2ccnc2)c2ccc(OC)cc2)cc1	inconclusive: 31.6 µM [cytotoxic, single point]	
Clc1cccc(-n2ncc3c(N4CCN(Cc5ccccc5)CC4)ncnc32)c1	inactive	
Clc1ccccc1Cc1cn2cc(-c3ccccc3)nc2s1	inconclusive: 2 µM [cytotoxic, full curve, poor fit]	
Cc1ccc(CN(Cc2ccco2)C(=O)c2oc3c(C)c(C)ccc3c2C)cc1	inactive	
COc1ccc(CN2C(=O)C(NC(=O)c3ccccc3OC)(C(F)(F)F)N=C2c2ccccc2)cc1 (stereo unspecified)	inactive	
CCCCCn1c(=N)n(CC(O)COc2ccccc2OC)c2ccccc21 (stereo unspecified)	inconclusive: 12.6 µM [cytotoxic, partial curve]	
Cc1ccc(Cn2nc(C)c(NC(=O)c3cc(-c4ccco4)on3)c2C)cc1	inconclusive: 31.6 µM [cytotoxic, single point]	
Cc1ccc(-c2nc3cccnc3s2)cc1NC(=O)Cc1ccccc1	inconclusive: 10 µM [cytotoxic, partial curve]	
COc1ccc(Cl)cc1C(=O)Nc1ccc2c(c1)OCO2	inconclusive: 20 µM [cytotoxic, single point]	
O=C(NCC1CCCO1)C1CCCN(S(=O)(=O)c2cccc3nsnc23)C1 (stereo unspecified)	inconclusive: 31.6 µM [cytotoxic, single point]	
Cc1cc(=O)c2c(O)cc(O)c(C)c2o1	inconclusive: 31.6 µM [cytotoxic, single point]	
Cc1cccc(Cc2c(C)nc3nc(SCC(=O)NCc4ccco4)nn3c2C)c1	inactive	
CC(Oc1ccccc1F)C(=O)Nc1ccc(-c2nc3ccccc3s2)cc1 (stereo unspecified)	inconclusive: 15.8 µM [cytotoxic, single point]	
FC(F)C(F)(F)C(F)(F)C(F)(F)c1cc(-c2ccccc2)n[nH]1	inconclusive: 25.1 µM [cytotoxic, single point]	
CC(C)Oc1ccc(NC(=O)Oc2ccccc2)cc1	inconclusive: 15.8 µM [cytotoxic, single point]	

Structure (SMILES)	Potency	activity change, negative = cytotoxicity
O=C(Nc1cccc(Br)c1)c1cc(-c2ccc3c(c2)OCCO3)on1	inconclusive: 6.31 µM [cytotoxic, full curve]	
Cc1cccc(NS(=O)(=O)c2ccc3nc(-c4ccccc4)[nH]c3c2)c1C	inconclusive: 31.6 µM [cytotoxic, single point]	
Clc1ccccc1Nc1ncnc2c1nc1n2CCCCC1	inconclusive: 10 µM [cytotoxic, partial curve]	
Cc1cc(C)n2nc(C(=O)Nc3ccc4c(c3)OCO4)nc2n1	inconclusive: 15.8 µM [cytotoxic, single point]	
Cc1cc(C)c2sc(N3CCN(C(=O)C4CC4)CC3)nc2c1	inconclusive: 11.2 µM [cytotoxic, partial curve]	
COc1ccc(CNC(=O)c2nc(S(=O)(=O)Cc3ccccc3)ncc2Cl)cc1	active: 20 µM	
CCOC(=O)N1CCN(Cc2nc3cc(NC(=O)c4ccccc4OC)ccc3n2C(C)C)CC1	inconclusive: 2.24 µM [cytotoxic, full curve, poor fit]	
Fc1ccc2nc3[nH]c4ccccc4c3nc2c1	inconclusive: 15.8 µM [cytotoxic, partial curve]	
CC[C@H](CN(C)C)C(=O)c1ccco1		inactive: 10% [at 9.22 µM]
CCOc1ccccc1CNC(=O)c1ccc(Cn2c(SCc3ccccc3)nc3cccnc32)cc1	inconclusive: 20 µM [cytotoxic, partial curve]	
CC(C)OCCCNC(=O)CSc1c2c(nc3ccc(Cl)cc13)CCCC2	active: 12.6 µM	
COc1ccc(Nc2cc(C(=O)NCCCN(C)Cc3ccccc3)c3ccccc3n2)cc1	inconclusive: 35.5 µM [cytotoxic, single point]	
CCOc1ccccc1NC(=O)c1cc2c(=O)n(Cc3cccnc3)ccc2nc1C	inactive	
Cc1ccc(-n2c(C)cc(C(=O)NS(=O)(=O)c3ccc(C)cc3)c2C)cc1	inconclusive: 20 µM [cytotoxic, single point]	
CCOc1ccc(C2=Nc3ccc(Br)cc3C(c3ccc(N4CCOCC4)cc3)=NN2)cc1	inconclusive: 8.91 µM [cytotoxic, partial curve, poor fit]	
COc1ccccc1NC(=O)c1c(C)cc(C)nc1SCC(=O)Nc1cccc(C)c1	inconclusive: 4.47 µM [cytotoxic, single point]	
CC(=O)N1c2ccccc2CC1C(=O)N1CCN(c2cccc(C)c2C)CC1 (stereo unspecified)	inactive	
Cc1ccc2onc(CC(=O)N3CCN(c4ccccc4F)CC3)c2c1	inconclusive: 3.98 µM [cytotoxic, full curve, poor fit]	
O=C(COc1ccc(Cl)cc1Cl)Nc1ccc(Cl)cn1	active: 5.01 µM	
O=C(Nc1nc(-c2ccc(Cl)s2)cs1)c1cccs1	inconclusive: 15.8 µM [cytotoxic, single point]	
CCOc1ccc(-c2cc(CCCC(=O)NCc3cccnc3)no2)cc1	active: 15.8 µM	
CCN(Cc1ccccc1)C(=O)c1cc2ccc3cccnc3c2[nH]1	inconclusive: 12.6 µM [cytotoxic, partial curve]	

Structure (SMILES)	Potency	activity change, negative = cytotoxicity
O=C1C(C=NCc2cccnc2)=C(O)c2ccccc21	inconclusive: 12.6 µM [cytotoxic, partial curve]	
Cc1ccc(CN2CCN(CC(=O)N/N=C/c3c[nH]c4ccccc34)CC2)cc1	inconclusive: 0.01 µM [cytotoxic, full curve, poor fit]	
Cc1cccc2c1-c1sc(C(=O)Nc3ccccc3C(N)=O)cc1CO2	inconclusive: 10 µM [cytotoxic, partial curve]	
CCC(=O)Nc1cc(-c2nc3cc(C)cc(C)c3o2)ccc1C	inconclusive: 15.8 µM [cytotoxic, single point]	
Cc1cc(C)c2ccc(N)nc2c1O	inactive	
Cc1nc(SCC(=O)Nc2ccccc2Cl)cc(-c2ccccc2)n1	inconclusive: 6.31 µM [cytotoxic, single point]	
CCCN(CCC)c1nc(NC2CCN(C(=O)OCC)CC2)nc(OC)n1	inactive	
COCCCNC(=O)c1sc2nc(C)c(C(=O)Nc3ccc(Cl)cc3)c(-c3ccc(Br)cc3)c2c1N	inconclusive: 12.6 µM [cytotoxic, single point]	
Cc1cc(C)c(S(=O)(=O)Nc2ccc(-c3ccc(N4CCCCC4)nn3)cc2)c(C)c1	inconclusive: 15.8 µM [cytotoxic, single point]	
O=C(NCCN1CCN(c2cccc(Cl)c2)CC1)c1cccn2c(=O)c3ccccc3nc12	inactive	
O=C1C=CC2=C3c4cc(O)c(O)cc4CC3(O)COC2=C1O (stereo unspecified)	inactive	
COc1ccc(-c2cc3nc(C)cc(NCCO)n3n2)cc1	inconclusive: 10 µM [cytotoxic, partial curve]	
COc1ccc(N2CCN(c3oc(-c4ccccc4C)nc3S(=O)(=O)c3ccccc3)CC2)cc1	inactive	
O=C1C(C=NCc2ccco2)=C(O)c2ccccc21	inconclusive: 25.1 µM [cytotoxic, single point]	
O=C(Nc1ccc(F)cc1F)c1cc2ccc3cccnc3c2[nH]1	inconclusive: 10 µM [cytotoxic, partial curve]	
CN1CCN(CCNC(=O)c2cnn(-c3cccc(Cl)c3)c2C2CCN(C(=O)OC(C)(C)C)CC2)CC1	inactive	
CCOc1ccc(NS(=O)(=O)c2ccc3[nH]cc(C(=O)NC(C)CC)c(=O)c3c2)cc1 (stereo unspecified)	inconclusive: 20 µM [cytotoxic, partial curve, poor fit]	
CCc1ccc(OCC(=O)Nc2ccc(-c3nc4ccccc4o3)c(O)c2)cc1	inconclusive: 31.6 µM [cytotoxic, single point]	
Cc1ccc(N2C(=O)c3n[nH]c(C)c3C2c2ccco2)cc1 (stereo unspecified)	inconclusive: 12.6 µM [cytotoxic, partial curve]	
CCN1CCN(c2cc(C)c3cc(NC(=O)c4cc(Br)ccc4Cl)ccc3n2)CC1	inconclusive: 12.6 µM [cytotoxic, single point]	
COc1ccc(-c2nsc(NC(=O)COc3ccccc3OC)n2)cc1	inconclusive: 0.708 µM [cytotoxic, full curve, poor fit]	
COc1ccccc1CNC(=O)CCCn1c(=O)c2ccccc2n(CC(=O)Nc2ccc(C)cc2Cl)c1=O	inconclusive: 15.8 µM [cytotoxic, partial curve]	
